Test results: the supplement of paper PMC3334620
In all, about 33,000 sequences were measured (“E-score (-0.5 to 0.5)”: median about -0.013, highest 2% from about 0.3 on). Some of the results follow.

What follows are sequences tested against T1, Msn1 (UniProt P22148) (assay: PBM E-score (8-mer binding enrichment) (E-score (-0.5 to 0.5)); higher = stronger / more preferred TF binding; most listed sequences are background and not binding sites). Conditions: protein concentration: 200 nM; construct: GST-full length.
T1 sequence: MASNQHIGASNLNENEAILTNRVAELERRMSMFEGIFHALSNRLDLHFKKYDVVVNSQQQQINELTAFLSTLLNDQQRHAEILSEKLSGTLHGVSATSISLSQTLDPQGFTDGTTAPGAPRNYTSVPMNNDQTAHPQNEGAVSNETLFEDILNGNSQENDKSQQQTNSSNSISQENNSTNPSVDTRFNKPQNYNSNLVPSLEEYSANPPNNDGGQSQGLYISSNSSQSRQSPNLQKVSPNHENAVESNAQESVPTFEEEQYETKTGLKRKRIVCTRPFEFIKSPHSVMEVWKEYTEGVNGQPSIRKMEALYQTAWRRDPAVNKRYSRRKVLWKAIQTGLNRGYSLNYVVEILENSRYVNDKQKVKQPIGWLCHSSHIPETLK
Method: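 Universal 'all 10-mer' protein binding microarrays (Agilent AMADID 015681) probed with GST-tagged S. cerevisiae TFs (full-length or DBD) made by in vitro transcription/translation (PURExpress), about 100-200 nM. Bound TF was detected with fluorescent anti-GST. Each ungapped 8-mer (which stands for itself and its reverse complement) is scored by the PBM enrichment score (E-score), a modified Wilcoxon-Mann-Whitney statistic from -0.5 to +0.5, computed with the Universal PBM Analysis Suite. Scale: above 0.35 generally sequence-specific binding.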

Row | Sequence | PBM E-score
1 | GAAGCGAA | 0.0924
2 | ACATTCGT | 0.0578
3 | AGTATCGG | 0.0763
4 | TCACACGA | 0.049
5 | ATGATTAA | 0.118
6 | ACAGACTG | 0.112
7 | ACAAAGGA | 0.0497
8 | CTCCAATA | 0.0417
9 | CAATTAGG | 0.0526
10 | ATCGGCCG | -0.0299
11 | CACCTATA | 3e-05
12 | AGACGTCG | -0.115
13 | GACGGTAA | 0.0175
14 | CAGCCTTC | -0.31
15 | AGTCCCGC | -0.0107
16 | ACGTTGGA | -0.128
17 | GTACTGGA | 0.239
18 | AAGCTGTC | -0.241
19 | GAGTCTGC | -0.176
20 | GAACGTAA | 0.0922
21 | CCCTAACA | -0.00569
22 | AGGGACGC | -0.0191
23 | ACCTGCGC | -0.279
24 | AGGCATCG | -0.148
25 | CCAAGTAC | -0.0511

Row | Sequence | PBM E-score
26 | AGGCCCTC | -0.234
27 | AACGAGAT | -0.0153
28 | GATTCTCA | 0.00787
29 | AGAACGTC | 0.0864
30 | GGCTTACC | -0.234
31 | AAAACACT | 0.122
32 | CTTCACTC | -0.159
33 | CGTTAAGC | 0.133
34 | AAAACGCC | 0.045
35 | GAGGGCCA | -0.104
36 | ACCTCTTC | 0.0198
37 | GCTATCTA | -0.126
38 | CTGTTGCA | -0.11
39 | AGACTGGC | -0.236
40 | CATCGTTA | -0.0369
41 | GACCTCAC | -0.0299
42 | CATTGTGG | 0.0659
43 | ATTCATTA | 0.212
44 | TCCCAGCA | 0.131
45 | CGGTATAA | 0.0639
46 | AGGCCTAC | -0.0353
47 | CGGTTAAC | -0.274
48 | ATATCCTG | 0.0176
49 | AACAGATT | 0.0347
50 | AAGCCGTG | -0.0765

Row | Sequence | PBM E-score
51 | CGGGTTTC | 0.0761
52 | CGCCTCGC | -0.168
53 | CGCCCGTA | -0.0328
54 | ATTTATAG | 0.0981
55 | AATGATCG | -0.132
56 | AGCTTGTC | 0.168
57 | ACCACGAG | 0.0543
58 | GCACGGCC | -0.144
59 | ATGGGACA | 0.429
60 | CATTAGAA | 0.17
61 | ACTTACTC | -0.0652
62 | ACTATGAT | -0.0735
63 | ACATTAGC | 0.147
64 | CATAAGTA | 0.0662
65 | CAAACTGA | 0.0169
66 | AATGGTAA | 0.142
67 | GAAATAAA | 0.0577
68 | CGCCTGAG | 0.00251
69 | ACACACCT | 0.0978
70 | CGACCGCG | -0.0918
71 | CGGACGCA | 0.0711
72 | ATATTACG | 0.153
73 | CCACCCCA | -0.189
74 | GTGTGCAA | -0.0418
75 | ACGATGAG | 0.0593

Row | Sequence | PBM E-score
76 | CGATCACA | 0.165
77 | GAGACATA | 0.448
78 | GCATTCAA | -0.239
79 | CCCTAATA | 0.0635
80 | GCTGTTGA | -0.0159
81 | CGTTCTAG | 0.0924
82 | CTAGACAG | 0.00829
83 | CTCGAAAG | -0.156
84 | ACTCCCAA | -0.0401
85 | ACTAGTAC | 0.21
86 | GAGACCAA | 0.068
87 | CTACAGCA | -0.109
88 | CAATGACA | 0.298
89 | GATCTTCA | 0.0348
90 | ACTAAAAA | 0.309
91 | GCCTTTTA | 0.0668
92 | AATTAAGA | 0.14
93 | GATGGCGA | 0.048
94 | AGAATACA | 0.149
95 | AGGGCAGG | -0.0906
96 | CGGGAGGA | -0.0135
97 | ATCTTATG | 0.0986
98 | ACCTGGCA | -0.0445
99 | AAATTTCA | -0.0065
100 | ACTGGGTA | -0.0457

Row | Sequence | PBM E-score
101 | AATATCGT | 0.131
102 | GTAGACCA | -0.206
103 | CGTTTCAA | 0.185
104 | ATTGGATA | 0.0185
105 | TGCTAACA | -0.0311
106 | ACCAGTAT | 0.0101
107 | GGGCACCC | -0.367
108 | TACCACTA | -0.0138
109 | AAGAAACA | 0.181
110 | CAGGACAG | 0.259
111 | ATCAAATC | -0.0029
112 | GAGGCCAA | -0.224
113 | CCGATTAC | -0.0406
114 | AATTGAGA | 0.114
115 | CCCTTCAA | -0.185
116 | AAACTCGT | 0.0896
117 | AAATCGGT | 0.0247
118 | TAGGAGAA | -0.148
119 | ACTCGAGC | 0.0838
120 | GATTCTCC | -0.142
121 | TATGTGGA | 0.0929
122 | ATGACCGG | -0.0236
123 | AGTATTTC | 0.113
124 | CCCCTGAC | -0.118
125 | AGCAGGAC | 0.194

Row | Sequence | PBM E-score
126 | GTGGATTA | 0.0377
127 | CACTCAGA | -0.0156
128 | CAGTTAGC | -0.17
129 | AAACTGAG | -0.0786
130 | AACGATCA | -0.175
131 | GTGGCCGA | -0.118
132 | ACTAGGAT | -0.0469
133 | CCCGTACC | -0.147
134 | AAGGGGAA | -0.135
135 | GCACCCAC | -0.091
136 | ATAAGCGG | -0.0354
137 | AATCTGGG | -0.203
138 | AACAGACT | 0.132
139 | AGCTAGGA | -0.021
140 | CCCCGAAC | -0.00181
141 | CAGTGGTA | -0.194
142 | AAGACAGT | 0.0956
143 | AGTAGAAG | -0.0712
144 | ACAGGGGC | -0.326
145 | GGGGAAGA | -0.223
146 | ATCGCTAG | 0.022
147 | TGCGAACA | 0.0208
148 | AAAATGAG | 0.116
149 | AATGACGG | 0.0318
150 | CACAGGGG | -0.389

Row | Sequence | PBM E-score
151 | CACTGTGC | -0.00552
152 | CCTGTCGA | -0.133
153 | CTGGTAAC | -0.0643
154 | CTTCCCTA | -0.129
155 | ACTCCAAA | -0.0742
156 | ACCATCCC | -0.19
157 | AGTTGCCA | -0.0802
158 | ACCACACC | -0.156
159 | CTGCTAAC | -0.128
160 | GGGACCCC | -0.339
161 | AAGGAGGT | -0.268
162 | AGCCGCTG | -0.132
163 | CACCTTCA | -0.115
164 | ACCCGTGA | -0.129
165 | ACGGAGTG | -0.0682
166 | AGCGCCAT | -0.266
167 | CAAGTACC | 0.0476
168 | AGGTCGGC | -0.119
169 | AGATCCCT | -0.102
170 | AACTCTAG | 0.0199
171 | CTCCTCGC | -0.194
172 | ATATGCGG | 0.0743
